Assay results: PubChem BioAssay (NCATS)
Some of the results follow. The main result of the screen is listed elsewhere. These columns were measured beside it and carry no call. Compounds called inactive in the main read-out are mostly missing here. The note in brackets gives the kind of curve behind each potency; many fits are weak.

What follows are compounds tested against Catechol O-methyltransferase (Homo sapiens) (UniProt P21964) (assay: Confirmatory Screen for Target Class Profiling of Small Molecule Inhibitors of Methyltransferases (AID 1745852;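 also: inhibitor potency for blocking SAH production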)). Conditions: MTase-Glo luminescence, SAH detection, recombinant enzyme; measured here: COMT inhibition potency.
UniProt P21964, sequence (P21964 whole entry, looked up): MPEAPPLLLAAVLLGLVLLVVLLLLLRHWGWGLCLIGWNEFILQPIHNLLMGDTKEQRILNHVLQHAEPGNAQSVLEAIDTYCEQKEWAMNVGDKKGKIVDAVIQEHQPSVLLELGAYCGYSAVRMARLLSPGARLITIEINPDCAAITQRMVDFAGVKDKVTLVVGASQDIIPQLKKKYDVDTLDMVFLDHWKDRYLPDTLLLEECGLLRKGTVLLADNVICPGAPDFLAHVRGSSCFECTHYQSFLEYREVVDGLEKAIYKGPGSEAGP
Tags tell the direction and shape of the fitted curve.

Row | SMILES | IC50
1 | C=C1C(=O)OC2/C=C(\CO)CC/C=C(\C=O)CC(OC(=O)CC(C)C)C12 (stereo not drawn) | 5.95 µM [falling, partial curve]
2 | O=C(O)CCc1cccc(O[C@@H]2O[C@H](CO)[C@@H](O)[C@H](O)[C@H]2O)c1O | 10.6 µM [falling, partial curve]
3 | CC1=CC(=O)C2(OC3OC(C)C(O)C(OC(=O)/C=C/c4ccccc4)C3O)C=COC(OC3OC(CO)C(O)C(O)C3O)C12 (stereo not drawn) | 6.38 µM [falling, partial curve]
4 | CN(C)[C@@H]1C(=O)C(C(N)=O)=C(O)[C@@]2(O)C(=O)C3=C(O)c4c(O)ccc(Cl)c4[C@@H](O)[C@H]3C[C@@H]12 | 19.3 µM [falling, partial curve]
5 | C=C1C(=O)OC2/C=C(\C)CC/C=C(\C=O)C(OC)C(OC(=O)C(C)CC)C12 (stereo not drawn) | 10.6 µM [falling, partial curve]
6 | COc1cc(/C=C/C(=O)OC[C@H]2O[C@@](CO)(O[C@H]3O[C@H](CO)[C@@H](O)[C@H](O)[C@H]3O)[C@@H](OC(=O)/C=C/c3ccc(O)c(OC)c3)[C@@H]2O)ccc1O | 5.07 µM [falling, partial curve]
7 | COc1ccc(CCO[C@@H]2O[C@H](CO[C@@H]3OC[C@H](O)[C@H](O)[C@H]3O)[C@@H](O)[C@H](O)[C@H]2O)cc1 | 2.64 µM [falling, full curve]
8 | CC1CCC2(CO)C(C(=O)O)=CCCC2C1(C)CCc1ccoc1 (stereo not drawn) | 0.942 µM [falling, full curve]
